Hit rate of the full screen: of about 48,000 compounds, about 550 (1.1%) were called active. Not shown: some 4% with an inconclusive outcome. Rule as the data show it: active = potency below about 15 µM; inconclusive = mostly about 16 µM to 33 µM; inactive = weaker than that. The list shows a part of the results.
Molecular target: Lysosomal acid glucosylceramidase (Homo sapiens) (UniProt P04062)
Experiment: Glucocerebrosidase;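 also: the screen sought inhibitors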
Settings: purified enzyme, resorufin glucoside fluorescence (screen aimed at inhibitors), 20 min
In short: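 Wild-type enzyme at 0.2 nM final in 50mM citric acid/KH2PO4, 10mM sodium taurocholate, 0.01% tween-20, pH 5.9, with resorufin beta-D-glucopyranoside at 30 uM final. Compounds titrated, 20 min at RT, red fluorescence read; AC50 from titration.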
Potency is read from the fitted curve at half-maximal effect.

UniProt P04062, sequence (P04062 whole entry, looked up): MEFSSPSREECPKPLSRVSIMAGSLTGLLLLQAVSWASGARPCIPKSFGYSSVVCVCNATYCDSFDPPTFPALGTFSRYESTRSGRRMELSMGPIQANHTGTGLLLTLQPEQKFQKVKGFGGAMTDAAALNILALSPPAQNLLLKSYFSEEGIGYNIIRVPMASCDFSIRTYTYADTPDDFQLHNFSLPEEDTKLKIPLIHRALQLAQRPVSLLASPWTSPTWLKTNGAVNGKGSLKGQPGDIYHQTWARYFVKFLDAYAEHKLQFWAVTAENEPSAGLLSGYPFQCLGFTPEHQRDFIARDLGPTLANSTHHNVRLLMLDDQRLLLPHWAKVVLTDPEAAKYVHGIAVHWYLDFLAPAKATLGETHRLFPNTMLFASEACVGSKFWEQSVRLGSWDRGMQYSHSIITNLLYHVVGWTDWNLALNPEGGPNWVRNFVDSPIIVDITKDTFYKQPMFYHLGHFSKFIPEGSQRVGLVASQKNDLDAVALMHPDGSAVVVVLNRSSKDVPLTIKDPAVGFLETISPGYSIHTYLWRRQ

Potency, inactive:
CCOC(=O)N1CCN(c2nc(C)cc(C(F)(F)F)n2)CC1 > 76.9 µM
C=CCn1c(SCn2nnc3ccccc3c2=O)nnc1-c1ccc(Cl)cc1 > 76.9 µM
Brc1ccc(-c2nn3c(Cc4ccccc4)nnc3s2)o1 > 76.9 µM
CCc1cc2c(NCCN3CCCCC3)ncnc2s1
COc1ccc(S(=O)(=O)NC2CCCCC2)cc1C > 76.9 µM
CCOC(=O)c1ccc(NC2OC(=O)c3ccccc32)cc1 (stereo unspecified) > 76.9 µM
COc1cc(OC)cc(-n2nnnc2SCC(=O)N2CCCc3ccccc32)c1 > 76.9 µM
C=CCn1c(SCc2c(C)noc2C)nc2sc3c(c2c1=O)CCCCC3
CCOC(=O)c1[nH]c(C(=O)O)c(CCC(=O)OC)c1C > 76.9 µM
CC(=O)c1cc2c(cc1NC(=O)CCCC(=O)O)OCO2 > 76.9 µM
CCOCC(=O)Nc1cc(OC)c(Cl)cc1OC > 76.9 µM
Nn1c(SC/C=C/c2ccccc2)nnc1-c1ccncc1 > 76.9 µM
CCCCNC(=O)CSc1nnc(-c2ccco2)n1C > 76.9 µM
CCOC(=O)c1c(CN2CCCCC2)n(C)c2cc(Br)c(OC)cc12 > 76.9 µM
O=C(O)c1oc2ccc(Br)cc2c1-n1cccc1 > 76.9 µM
S=c1nc(-c2ccccc2)n(CCN2CCOCC2)c2c1CCCC2 > 76.9 µM
CCN1CCN(Cc2nc3c(c(=O)n(C)c(=O)n3C)n2C(C)C(C)=O)CC1 (stereo unspecified) > 76.9 µM
CCc1ccccc1NC(=O)CSc1nnc([C@H](CCSC)NC(=O)OC(C)(C)C)o1 > 76.9 µM
Nc1nonc1C(=O)OCC(=O)N1CCCCC1 > 76.9 µM
CCOc1ccccc1N1CC(C(=O)Nc2ccc(C(=O)O)cc2)CC1=O (stereo unspecified) > 76.9 µM
CCOc1ccc(CCNC(=O)C2CCN(S(=O)(=O)N3CCOCC3)CC2)cc1OCC > 76.9 µM
Cc1cc(C)nc(Sc2nc(C)nc3c2oc2ccccc23)n1 > 76.9 µM
CCOC(=O)N1CCN(C(=O)c2cc(-c3ccc(OCC)cc3)nc3ccccc23)CC1 > 76.9 µM
CC12CC(c3ccccc3O1)C(C(=O)NCc1ccccc1)C(=O)N2 (stereo unspecified) > 76.9 µM
CCOC(=O)Nc1nnc(CCc2ccccc2)s1 > 76.9 µM
Cc1ccccc1NCc1ccccc1O > 76.9 µM
CC1CCN(CCCNC(=O)C2CCN(S(=O)(=O)N3CCCCC3)CC2)CC1 > 76.9 µM
CCN(CC)C(=O)CCC(=O)Nc1ccc(C(=O)OC)cc1 > 76.9 µM
O=C(O)C1CC(=O)N(c2ccc(F)c(F)c2)C1 (stereo unspecified) > 76.9 µM
COc1ccc(N2CC(O)=C(c3nc4ccccc4s3)C2=N)c(OC)c1 > 76.9 µM
O=C(CC1CCCCC1)NCc1cn2ccsc2n1 > 76.9 µM
COc1ccc(NC(=O)c2cc(-c3cccs3)on2)cc1OC > 76.9 µM
O=C(Oc1ccc(-c2nnco2)cc1)N1CCOCC1 > 76.9 µM
Cc1ccc(-n2c(Cc3cccn3C)nnc2SCC(=O)NC2CCCCC2)cc1 > 76.9 µM
CCN1CCN(CC(=O)Nc2c(C(=O)OC)[nH]c3cccc(Cl)c23)CC1 > 76.9 µM
COc1nc(C#N)c(N2CCOCC2)o1 > 76.9 µM
O=C1c2ccccc2NC(c2cnc3ccccc3n2)N1O (stereo unspecified) > 76.9 µM
Cc1ccc(NCc2nc3ccccc3n2C)cc1 > 76.9 µM
COc1ccc(-n2nnc3c(=O)n(Cc4cc(C)ccc4C)cnc32)cc1 > 76.9 µM
COc1cccc(C(=O)CSc2nnc(-c3cccs3)o2)c1 > 76.9 µM
COc1ccccc1N1CCN(C(=O)c2cc(-c3ccc4c(c3)OCO4)on2)CC1 > 76.9 µM
C=CCNc1ncnc2ccccc12 > 76.9 µM
COC(=O)c1[nH]c(C)c(/C(O)=C2\C(=O)C(=O)N(CCN(C)C)C2c2cc(OC)ccc2OC)c1C (stereo unspecified) > 76.9 µM
Cc1ccnc(N2CCC(C(=O)NC3CCCCCC3)CC2)n1 > 76.9 µM
O=C(NCc1ccccc1)N1CCC(n2cnc3cc(F)ccc32)CC1 > 76.9 µM
COC(=O)COc1ccc(S(=O)(=O)NCc2ccco2)cc1 > 76.9 µM
COC(=O)C1CCN(c2cc(=O)n(C3CCCCC3)c(=O)[nH]2)CC1 > 76.9 µM
Cc1cc(C)n(-c2ccc(C(=O)OCC(=O)Nc3ccc(S(=O)(=O)N4CCOCC4)cc3)cc2)n1 > 76.9 µM
CCN=C1SC(CC(=O)Nc2sc(C)c(C)c2C(=O)OC)C(=O)N1CC (stereo unspecified) > 76.9 µM
CC(NC(=O)Cc1cccs1)C(c1cccs1)N1CCN(c2ccccc2F)CC1 (stereo unspecified) > 76.9 µM
Cc1ccc(CNC(=O)C2CC(=O)OC23CCCC3)c(C)c1 (stereo unspecified) > 76.9 µM
Cn1nnc(NC(=O)CSc2ncn[nH]2)n1 > 76.9 µM
CCOCC(=O)NCc1ccc2c(c1)OCO2 > 76.9 µM
Cc1cc(NC(=O)CSc2nc(-c3ccco3)cc(C(F)(F)F)n2)n(-c2ccccc2)n1 > 76.9 µM
O=C(Cn1nnc(-c2ccc3c(c2)OCO3)n1)N1CCOCC1 > 76.9 µM
O=C(COc1ccc(Br)cc1CO)Nc1ccc(F)cc1 > 76.9 µM
CCn1c(SCC(=O)c2ccccc2)nnc1-c1ccoc1C > 76.9 µM
CC(=O)c1cc2c(cc1N)OCO2 > 76.9 µM
Cc1ccc(SCc2nc(-c3cccnc3)no2)cc1 > 76.9 µM
CN(C)CCNC(=O)Cc1c(C(=O)O)n(C)c2ccccc12 > 76.9 µM
CCCCCCn1c(NCC)nc2c1c(=O)n(C)c(=O)n2C > 76.9 µM
